PMC4336329 (PLoS ONE, 2015)
Among all 310,000 compounds or so, about 2,200 (0.71%) showed an effect of 50% or more. Effects have a minus sign here. The list shows a part of the results.

Target: human ether-à-go-go-related gene (hERG) potassium channel (human, UniProt Q12809)
Assay: primary screen, population patch clamp on CHO cells stably expressing hERG

human ether-à-go-go-related gene (hERG) potassium channel, sequence (Q12809 whole entry, looked up): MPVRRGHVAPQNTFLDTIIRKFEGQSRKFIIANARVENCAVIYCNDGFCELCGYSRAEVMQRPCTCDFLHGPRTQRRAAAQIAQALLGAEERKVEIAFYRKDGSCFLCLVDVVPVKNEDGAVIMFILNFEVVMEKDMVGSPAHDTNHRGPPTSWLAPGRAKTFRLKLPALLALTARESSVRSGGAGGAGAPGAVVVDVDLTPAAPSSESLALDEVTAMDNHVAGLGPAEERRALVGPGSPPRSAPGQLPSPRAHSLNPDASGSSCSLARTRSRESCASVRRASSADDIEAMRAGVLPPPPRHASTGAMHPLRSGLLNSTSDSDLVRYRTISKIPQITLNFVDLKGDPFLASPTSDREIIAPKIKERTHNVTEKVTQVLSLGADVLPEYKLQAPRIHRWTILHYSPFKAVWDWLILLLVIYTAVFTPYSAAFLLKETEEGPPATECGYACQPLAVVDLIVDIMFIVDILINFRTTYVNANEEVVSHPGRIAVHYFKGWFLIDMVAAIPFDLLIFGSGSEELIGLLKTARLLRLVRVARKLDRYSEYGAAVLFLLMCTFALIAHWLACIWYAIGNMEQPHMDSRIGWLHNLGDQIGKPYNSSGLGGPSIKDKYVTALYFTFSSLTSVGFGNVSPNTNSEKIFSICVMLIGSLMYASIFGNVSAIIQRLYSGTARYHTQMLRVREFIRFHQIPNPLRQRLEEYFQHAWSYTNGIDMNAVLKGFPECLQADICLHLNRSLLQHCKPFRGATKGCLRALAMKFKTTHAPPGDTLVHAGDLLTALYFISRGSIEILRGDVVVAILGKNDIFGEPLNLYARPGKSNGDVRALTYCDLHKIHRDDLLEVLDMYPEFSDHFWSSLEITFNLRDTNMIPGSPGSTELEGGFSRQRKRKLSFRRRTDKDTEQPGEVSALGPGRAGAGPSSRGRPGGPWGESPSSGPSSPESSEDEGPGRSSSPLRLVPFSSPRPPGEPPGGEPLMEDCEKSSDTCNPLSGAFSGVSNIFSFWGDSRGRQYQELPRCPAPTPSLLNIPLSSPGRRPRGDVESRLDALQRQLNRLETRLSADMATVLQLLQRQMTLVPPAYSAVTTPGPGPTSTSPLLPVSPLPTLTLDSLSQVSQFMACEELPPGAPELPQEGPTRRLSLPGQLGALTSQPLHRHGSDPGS

SMILES | hERG current change (%, negative = inhibition) at 1uM [%]
CCOc1ccc2c(c1)sc1nc(C(=O)OC)cc(=O)n12 | -1.25
O=C(NC1CC2CCCC(C1)N2C(=O)NC1CCCCC1)c1ccc(F)cc1 (stereo not drawn) | 13
CCCCN(C(=O)CSCC(=O)Nc1ccc(C)cc1)c1c(N)n(CC(C)C)c(=O)[nH]c1=O | 12.1
Cc1ccc(SC(c2ccc(C)cc2)C(Cn2cncn2)C(=O)c2ccccc2)cc1 (stereo not drawn) | 10.6
CCCCn1c(O)c(C(C)=NCc2cc(OC)cc(OC)c2)c(=O)[nH]c1=O | -18.3
Cc1ccc(NS(=O)(=O)c2c(C)[nH]c(C)c2C(=O)N2CCCCC2)c(C)c1 | 15.8
COc1ccc(C(=O)N=c2sc3ccccc3n2C)cc1 | 5.03
COC(=O)c1sc(-c2ccc(Cl)cc2)cc1NC(=O)CSCC(=O)O | 15.7
COc1ccc(CN2CCN(Cc3ccco3)CC2)cc1.O=C(O)C(=O)O | 12.3
COc1ccc2cc3cc(C(=O)NCCN4CCc5ccccc5C4)oc3nc2c1 | -19.7
CCOC(=O)c1cnc2c(c(C)nn2C)c1Oc1ccc(OC)cc1 | 6.03
COc1cc(C(C[N+](=O)[O-])c2c(C)[nH]c3ccccc23)cc(OC)c1OC (stereo not drawn) | 23.4
Cc1ccc(C)c(OCCC(=O)OCC(=O)c2c(N)n(C)c(=O)n(C)c2=O)c1 | -10.1
CC(=O)Nc1ccc(NC(=O)COc2ccc(-c3ccccc3)cc2)cc1 | 8.95
CCC1CN(C(=O)N2CCC(C(=O)NCc3ccc(OC)cc3OC)CC2)c2ccccc2O1 (stereo not drawn) | 4.61
COc1ccccc1N1CCN(C(C)C(=O)N2CC(C)OC(C)C2)CC1.O=C(O)C(=O)O (stereo not drawn) | 9.39
COC(=O)CSC1=NP(=S)(SCC(=O)OC)N2CCCC2=C1C#N (stereo not drawn) | 4.83
CCOc1ccc(C2NC(=S)NC3=C2CCc2ccccc23)cc1 (stereo not drawn) | 4.39
O=C(CSc1nnc(CNC(=O)c2cccs2)o1)Nc1cccc(Cl)c1 | 14.7
COCCn1nnnc1C(c1ccc(OC)cc1)N1CCC(C)CC1 (stereo not drawn) | 10.2
O=Cc1ccc2cccnc2n1 | 8.82
Cc1ccc(CNc2ccc(N3C(=O)CCCC3=O)cc2[N+](=O)[O-])cc1 | 2.32
Cc1nnc2n(Cc3ccccc3)c(=O)c3c4c(sc3n12)COC(C(C)C)C4 (stereo not drawn) | 9.28

SMILES | hERG current change (%, negative = inhibition) at 1uM [%]
CC1=C(C(=O)Nc2cccc(C(=O)NC(C)c3ccccc3)c2)SCCO1 (stereo not drawn) | 14.8
CC(=O)CCC(C)=O | 15.9
O=C(COC(=O)C1CCN(c2ccc(C(F)(F)F)cn2)CC1)c1ccccc1 | 2.55
Cc1ccc(OCCC(=O)O)cc1 | 17.1
COc1ccc(CCNC(=O)NS(=O)(=O)c2ccc(C)cc2)cc1OC | 12.7
COC(=O)C1C(C(C)C)N(c2ccccc2)OC1(C)O (stereo not drawn) | 8.27
NS(=O)(=O)c1ccc(NC(=O)C2Cc3ccccc3CN2C(=O)c2ccco2)cc1 (stereo not drawn) | 12.1
Cc1cccc(NC(=O)N2CCCC2)c1 | 12.9
CCN1C(=O)[C@H]2[C@@H](c3ccc(C)cc3)N3C(=O)N(c4cccc(Cl)c4)C(=O)[C@@]3(CC(C)C)[C@H]2C1=O | 6.3
COc1ccc2oc(=O)c(C(=O)N3CCCc4ccccc43)cc2c1 | -32.7
COc1ccc([C@H]2CC(=O)C=C(c3c(OC)cccc3OC)C2)cc1 | 3.15
CC(=O)c1ccc(S(=O)(=O)NCC(=O)Nc2nc3ccccc3[nH]2)cc1 | 6.02
O=C(C1CCC1)N1CCc2cc(S(=O)(=O)NCC3COc4ccccc4O3)ccc21 (stereo not drawn) | -5.84
Cc1cc(C)n2nc(SCc3nnc(SCc4ccccc4Cl)s3)nc2n1 | 8.43
FC(F)Oc1ccc(NC(=S)Nc2ccc3cn[nH]c3c2)cc1 | -30.4
COc1ccc(C(=O)CCC(=O)Nc2cccnc2)c(OC)c1 | 13
COC(=O)C1=C(C)N(C)C(=S)NC1c1ccccc1 (stereo not drawn) | 3.43
Cc1ccc(C)c(S(=O)(=O)Nc2ccc(C(N)=O)cc2)c1 | 12.3
COC(=O)c1sccc1NC(=O)Nc1ccc(F)cc1 | 12.5
CN1CCN(C(=O)CN(Cc2ccc(Cl)cc2)S(C)(=O)=O)CC1 | 7.83
Cc1nnc(-c2ccccc2)c[n+]1[O-] | 11.7
CCNc1nc(NC(C)CC)nc(Oc2ccc(OCC)nn2)n1 (stereo not drawn) | 3.84
